Experimental data: the RNAGym collection of RNA variant scans (doi:10.7554/elife.90254)
The source gives no read counts; variants with many changes may rest on few reads.

B1: LINE1-mini (parent)
chain: GGCAGAGCUCAACACAGCGUGGCAAAGUGGCUGUGGCUAGACUGCC

Variants of: B1
Assay: self-cleavage, relative activity (ratio to wild type); higher = more cleavage; in vitro, sequencing; the parent is a self-cleaving ribozyme

Row | Variant | self-cleavage
1 | C8G U9A G17C G30C U34C | 0.11
2 | C8G A25C G44A | 0.04
3 | C8G G36C G40U | 0.02
4 | C8G C18G A25C G29C G36U G40U | 0.02
5 | C8G G19U G30U G44C | 0.04
6 | C8G C10U A11G G19U | 0.02
7 | C8G G22A G27A | 0.05
8 | C8A U20A G30A G35U G44C | 0.22
9 | C8G G22A G29C G44U | 0
10 | C8G C13A G22C G44U | 0.08
11 | C8G C10U A39C G40A | 0.02
12 | C8A U9A G17U C23G G44A | 0.01
13 | C8G A12C C13A G19A U43C | 0.01
14 | C8G G29U U38G G44C | 0.01
15 | C8A U9C A39G | 0.08
16 | C8A U9G G21A G29C A41U | 0.02
17 | C8G G19A A26U G27U U28C | 0.32
18 | C8G G21C G29U G30U G36C | 0.16
19 | C8G A12C C23G U43A | 0
20 | C8G C15A G17C C23A A24G C46U | 0.02
21 | C8G G17C G35U | 0.11
22 | C8G G29C G40C C42U | 0.02
23 | C8G A12C G17C G19U | 0
24 | C8G C23A A24U G36A | 0.03

Row | Variant | self-cleavage
25 | C8G U9G G17C C18A A24U C46G | 0.15
26 | C8G C18G G29U C45A | 0.01
27 | C8G A12C C18A C23A G35A C37G | 0
28 | C8A U9A A12C G21A U32G | 0.03
29 | C8G C13G A39C | 0.02
30 | C8G C10U G29U | 0.07
31 | C8G C10G G21C | 0.01
32 | C8G C15U G17U G36C C37U | 0.04
33 | C8G G30U G36A | 0.1
34 | C8A U28A C31A | 0.04
35 | C8G A26U A41U | 0.09
36 | C8G G22C C23G G29A G30A G33C | 0.12
37 | C8G G19A G21U | 0.01
38 | C8G U9C U20A U28A | 0.01
39 | C8A U9C C10U C23A G29U G35A A39U | 0.04
40 | C8G C15U G22C | 0.06
41 | C8G G35C C37A | 0.03
42 | C8G C18U U28A G30U C45U | 0.07
43 | C8A U32G G40A | 0.01
44 | C8G G19C G40U | 0.05
45 | C8G C15A A26U G27C | 0.06
46 | C8G C18U G19U G30U C42A U43A | 0.06
47 | C8G A14G G21A A41U | 0.01
48 | C8G G17A G21U G22A | 0.01

Row | Variant | self-cleavage
49 | C8G G27U C37U A39U C45G | 0.01
50 | C8G A26G G29U | 0.56
51 | C8G C10G A11U | 0.02
52 | C8G G35U G40U C46U | 0.06
53 | C8A U28C C42A | 0.18
54 | C8G A26U U38A | 0.04
55 | C8G A12C G44A | 0.01
56 | C8G A16U G36U | 0.02
57 | C8G G29A C31U | 0.22
58 | C8G U9A A14G G22A G35U | 0.02
59 | C8G C10U G17C C37G | 0.14
60 | C8G A12G C13U G22A | 0.02
61 | C8G U9G G17C | 0.04
62 | C8G A11C G19U | 0.01
63 | C8G C13U C37G U38G C45U C46A | 0.09
64 | C8G A14C G30A | 0.03
65 | C8G C18G C23U C37A | 0.09
66 | C8G C15G A16U | 0
67 | C8G C10U G22U G36A | 0.24
68 | C8A U9G A25U | 0.01
69 | C8G G17A C31U C37U A39C | 0.02
70 | C8G U20G C37U | 0.02
71 | C8A U9A C15A A16U G33U G40A | 0.1
72 | C8G C31U A41C | 0.04

Row | Variant | self-cleavage
73 | C8G C18A G22U A24G C45U | 0.02
74 | C8G A25U C46A | 0
75 | C8G A25U C46G | 0.1
76 | C8G C10A C13U C31G | 0.03
77 | C8G C23U C42U | 0.03
78 | C8G C13U A16C C23G A25G G40U | 0.03
79 | C8G C13G A14U G21A A41U | 0.01
80 | C8G C13G A25U C37A A41U | 0.03
81 | C8A U38G C42A | 0.01
82 | C8G C18A G22A | 0.06
83 | C8G A25C G27U C37G C45U | 0.01
84 | C8G C10A A16U | 0.01
85 | C8G G19U U28G C31U | 0.04
86 | C8G C13U U32C G44U | 0.04
87 | C8G U20G G35C | 0.04
88 | C8G A14G C23A C31U | 0.02
89 | C8G C10A A11C G29U C46G | 0.02
90 | C8G A24C C37U C42G | 0.02
91 | C8A U38A G44A | 0.05
92 | C8G U9A U34C A39C C42G | 0.02
93 | C8G C10A C42G | 0.04
94 | C8G G29U C37U | 0.07
95 | C8G G19C A25G G36U C45U | 0.09
96 | C8A U38A G40C | 0.12

Row | Variant | self-cleavage
97 | C8G C15U A25G A39U | 0.12
98 | C8G G29U C46A | 0.13
99 | C8G U9G G19U C31G | 0.04
100 | C8G G22A A24U U32A C42A | 0.04
101 | C8G A11G G36A | 0.03
102 | C8A U20A C42U | 0.04
103 | C8G A12G G33C C42U | 0.03
104 | C8G C13A C42G | 0.1
105 | C8G C10A C13G G33U | 0.01
106 | C8G C15A U20C A26U | 0.08
107 | C8G A11U U32A G40C | 0
108 | C8G A14G G19A U28G G40C | 0.06
109 | C8G G17A C45A | 0.02
110 | C8G G21A G27C | 0.19
111 | C8G G33U U34A | 0.06
112 | C8G G21U G40A G44U | 0.22
113 | C8A U38A C42G | 0.26
114 | C8G G22A G33C U38A C46G | 0.02
115 | C8G A16G G17A G33A | 0.02
116 | C8G A16C G19A A25U G30U | 0.02
117 | C8G A14C G29U G35U C45A | 0.01
118 | C8G C13A G21C C37A C42G | 0.13
119 | C8A U28G G36A | 0.16
120 | C8G C45U C46U | 0.01

Row | Variant | self-cleavage
121 | C8G G27U C45G | 0.05
122 | C8G A11G A12C G27A | 0.02
123 | C8G A26U A41U G44C | 0.19
124 | C8G C15A U43C | 0
125 | C8G C13U C37G G44U | 0.07
126 | C8G G21U C46A | 0.13
127 | C8G C13U C15G | 0.06
128 | C8A U28G U32C G36C | 0.17
129 | C8G C13A G22U | 0.03
130 | C8G C13G G40A | 0.01
131 | C8G C18U G33A U43A | 0.05
132 | C8A U9G C10G A12C U20G C46U | 0.01
133 | C8G A14U G33U | 0.03
134 | C8G G27A C46A | 0.05
135 | C8G C23G A24U | 0
136 | C8G U20A G40U | 0.12
137 | C8G A26G C37A | 0.04
138 | C8G C37G U43A C45G | 0.01
139 | C8G C10U A11U C31U | 0.01
140 | C8G C31A G36U | 0.8
141 | C8G G19U C45G | 0.02
142 | C8A U20G A39C C42G | 0.19
143 | C8G G17C A25U U38C C45A | 0.3
144 | C8G A11C C23A G36A | 0.01

Row | Variant | self-cleavage
145 | C8G C10U C18U U20C G21C | 0.04
146 | C8G A24U A41U | 0.31
147 | C8G A14C G22U C23A G36A | 0.02
148 | C8G A11C G22U C37U | 0
149 | C8G C10G C15A G35C | 0.02
150 | C8A U9A C18U G21U G44C | 0.07
151 | C8G C13A C37A | 0.16
152 | C8G A14G G44C | 0.03
153 | C8A U20G U38A | 0.19
154 | C8G U20C G21U G36U | 0.1
155 | C8G U20A C45U | 0.04
156 | C8G C23A G40A | 0.04
157 | C8G C13U U38A | 0.02
158 | C8G C13A G17U | 0.05
159 | C8G G17C C42U | 0
160 | C8G G35A C45U C46G | 0.02
161 | C8G G17C G19C G21A C42A | 0.03
162 | C8A U9A C13A A26G G40C A41G | 0.03
163 | C8A U9G U28A U34A C42U | 0.01
164 | C8G G29A A39G | 0.08
165 | C8G A16G A25G G29C | 0.02
166 | C8A U20G G40C G44A | 0.09
167 | C8G G17A G19A G21A G29U C42A | 0.02
